Over roughly 2,300 sequences, “median log2 fold change of GCK-ALFA target abundance (FLAG IP / Myc IP barcode read proportion)” has its median near 0.095; the lowest 2% begin near -0.47. The list shows a part of the results.
B1: LC3A_3_1896 (protein)
chain: LEEELEETLKLLKEKGASEEVLKKFKEVVELLLERGYEEAAKTLIEEVKELADASDEILLWFLEEVLEVIENEDLDEEELIKRIKEIARTAKSEAEIEEL
B2: LC3A_3_1630 (protein)
chain: MEEKVEETLKELKEAGHSEETLEAFREVAELLMEKGYEKALETLIEEVRELKDLPSELLLAMLEEILETIKTEDLNEEELIKKIKEIARVAKNEGEIIEL
B3: LC3A_17_564 (protein)
chain: MEEIKKEIEELIKELKKLIKELEKYDPEAAKEVEKLLKKAEEALKEGKLKEAAKYLEKAFDLAADKFEELSEKYNGKFSNEEMLANGLELRAIGIIEKLE
B4: LC3A_132_247 (protein)
chain: SEEELEKALEELKEILEKIVELLKAGKDPLPQIVKLEELAREIAKKLSLEETEKLVDEAIEYAEELFEKELDPNDEEARRTLDIIEMSLEGVLIEKELES
B5: LC3A_132_288 (protein)
chain: QEEKYKKLLEEAKKLVEEMKENIDDEEKVEKLLEELEKVMEEAKEKLSPELLAAFFEELEELLEELAEEFDEAGKEELALKADSLAIEAASLALRAKEEI
B6: LC3A_127_187 (protein)
chain: KKEELLKEIIKKADEAIEELSKPNYDKEKIKKLLEEMKKLAEEALKLDESFKPLLEDVKKAKELFEQLLKASPEEQESLRSLLIMLLEGIRIEAELLLLK
B7: LC3A_28_655 (protein)
chain: MSIEEIIEKALEEAKKAKEAGEPTVITITVSGDANEEDIERVIETLEEIAELLKDIKGSAIIIDLTGNLDEEYRDRLIDKAEELEEKYPNVTVIIAEEEE
B8: LC3A_3_1353 (protein)
chain: MEELIKEAVERLKAAGLSEKVVEAAERAMKALAKQGHEEAIKLLTEALLKHKDAPEEHLIKVLENLTKELEANPNLTEEEVKELVELADNDLAIEPLEEE
B9: LC3A_23_622 (protein)
chain: MYKVTVEADTIATPEEAEKYIKLVKEKVEEIKEKYKDKIEEVKLEIEREELPDGTVYLHITVTIIVKDDEELAQKLKNELVDFFDKNIPNGVISYEIEKL
B10: LC3A_28_766 (protein)
chain: MTIEEEVERAIEKAKEAKEKGEEAVIEIKVPDGATQEDVEVVIEGLEKIAEITKDMESVAIVIDVDGGVKQENLDKLAKKAEEIEKKYPNVTVIIALDEE
B11: LC3A_3_1455 (protein)
chain: IEKAKKELREILESNGADEETIEAAEKLLDALAKKGYEKAIEKVIEELKKMKNVPSEILKDMFEELLKIVETEDLSEEELIKKIEEEANAAKSEAEIIEL
B12: LC3A_free_0_2094 (protein)
chain: KTTVVEVVAISDKKVSEEDVKKIKEELEKLAKEIEKKYGAKVKVEVKDVDGRTVFTVTVEKEGLSIDEGLEIADEVADLLEEKFKELGIDATIYTSVYYE
B13: LC3A_28_1326 (protein)
chain: SHIEKELEKAEKEAEEALAAGEDALITIKIKPTTTVEEAKELMEKLEEIVEKYAPKQKISIIIDVESGVAQEVIDVIAEKAEEIEEKYPNVTVIIALDED
B14: LC3A_28_1144 (protein)
chain: SAGVEAAKAQIDADAEADKDEPEALLTATITSEATVEDVREIMEHVREIVEKLKHKEKIYVIINFEEPVSQEVLDEALRLGDEIEKEFPNVSVIVALPED
B15: LC3A_3_1435 (protein)
chain: MEELEEEAEEVLEEIGASEEAKEAVLRIVRIALEAGEEEEVEELIEVLKKAKNVPSEEVLEAAERALRKIEEEGKPVEEVLRELIEELRVLALEQEIEEL
B16: LC3A_free_46_2334 (protein)
chain: TLVVVEVDVLAPDRATAEAFVADLEARIRARLAEAGIDAEVEVELEEGPDGKTFRVTVKVRLKDPEADPQEVADLVVDAIDESAEEHGLSYIISVEIIEE
B17: LC3A_3_1443 (protein)
chain: SEEILKEAKEVAEKIGLSPEAIKAFLELIKLALEAGEEEEAKELIKVLEESKDVESEDILKIAEEALRRIKEEGVSIKEAIEEAIEELRVLRLEKEIEEL
B18: LC3A_28_972 (protein)
chain: SELDKELEKALKEAKEAAKAGEPPVIVLKVPGSKDPEDTEKVIKALEEIAEILKDVKGAAIIIDIDGGVTQEHQNKIIDAAEEIEKKYPNVTVIIALEEQ
B19: LC3A_28_737 (protein)
chain: SAIEENLKKAIAEAKAAAAAGESKVITITVPGTANEEDIEKVIKALEEIAEILKDVKDQAIIIDIDGKLDPELLKKLMDKADEIEKKYPNVTVIIALDEE
B20: LC3A_3_1837 (protein)
chain: LEEEREALLKALEEAGHSQETLDAVQRTIDALLAKGYEEAARTFIELLRENIHLPSELILELAQEVLELVETEDLSEEELTEEIKKLFRLYKNEYEIEEL
B21: LC3A_132_302 (protein)
chain: EEELAKELIEIAKEALRIAKEDPEKVEEVLKLLEEIEKLLKKLEKEVSPELAAKTFEEVEDILIELSRIAAKKGKDEVADKAFALAAEAAQLASDARAKI
B22: LC3A_free_39_2233 (protein)
chain: MEEELEKLIKEVAKEAGVDYEYVKKKIKEIQEVAGLSLEQMLEIVKALLEAVKAGADAEEILDRMLEIAKKLKEEGKSPEEILEAILEEIEDARNLIPLD
B23: LC3A_28_1047 (protein)
chain: SELEENAEKAIAEARKQLEQGEEAVVTLKVPDMPTEEAVRIFRETLERLIALSKEYGGKKISVVVDFDGDQETFDAIVDIAEEAEKADPNLTVIVALSEE
B24: LC3A_28_888 (protein)
chain: SEALESAKKALEEVEKAVAAGDQSPLVLEVKAPSTEEDTEKFIELLEKIAEAASKLSKVTIIIDISEEVSQENKDKIIDKAEEIEKKYPNVTVIIALPES
B25: LC3A_28_998 (protein)
chain: MEIEEQLKKALAEAKAAAAAGEPTVITINVPGDADEEDIERVIKTMEEIAEILKDVKGSAIVIDVDGKLKQEYLDRLLDKAEEIEKKYPNVTVIIALDED
B26: LC3A_3_1527 (protein)
chain: FEEIRKEILELLKEAGADPETIKTAEEALDLLEERGYEEAAKTFLEEVKELAGISPETLAAFVEDVLELLKTEDLDEEELSERIKEIARIERNAAEIEEL
B27: LC3A_free_39_2258 (protein)
chain: AEARRAAALARLEELAAKASPEVRAAVLALAEEIRDDVEALERLTELLERALKKGPEVVAILGEFAKEAVARIRAGAPREEAVEEMFKLAEAAIEIEEID
B28: LC3A_28_1006 (protein)
chain: SALEKQLKEALEQARKAAAAGEPVVITITVGGDATEEDIKKVIEAMKEIAEILKDIPGSAIIIDIDSKLSEEHKNKLIDAAEEIEEKYPNITVIIALDED
B29: LC3A_16_529 (protein)
chain: SAEHEETLALFSKALNALETDPEAAIAELAKIDPEAAAKARAALEAGKPKSELAKIFAETVRKYIEENKDELSEEELTLLEMIAESFDLLSELALVREEK

The binders below were run against MAP1LC3A, Q9H492 (assay: median log2 fold change of GCK-ALFA target abundance (FLAG IP / Myc IP barcode read proportion) (log2 ratio); each designed protein is fused to an ALFA-tag nanobody in HEK293 cells to bring the named protein to FLAG-tagged glucokinase (GCK); Myc marks an untargeted standard; higher = target protein stabilised (more abundant)). Details: target protein: 3xFLAG-MCP-GCK-ALFA reporter; HEK293 landing pad (RPLP).
Outline: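 HEK293 landing-pad cells received a recombined binder library fused to the ALFA nanobody and were induced with 2 μg mL^−1 doxycycline, then transfected with a plasmid encoding a FLAG-tagged target and a Myc-tagged standard. Lysates were collected after 48 h for anti-FLAG and anti-Myc immunoprecipitation, and the circular RNA barcodes were reverse transcribed, amplified and sequenced. Target abundance for each binder is the median log2 ratio of FLAG to Myc barcode read proportions. Barcodes had to reach a proportion of at least 10^−7 in both replicates, each binder needed at least 3 barcodes per replicate, a pseudocount of 10^−6 was applied, and the two replicates were pooled.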

In order of falling “median log2 fold change” value:
1. B17  0.45
2. B8  0.392
3. B26  0.345
4. B2  0.293
5. B27  0.28
6. B11  0.272
7. B22  0.261
8. B21  0.228
9. B6  0.195
10. B3  0.184
11. B15  0.138
12. B19  0.118
13. B14  0.097
14. B10  0.0965
15. B1  0.0933
16. B7  0.0897
17. B16  0.0611
18. B5  0.0383
19. B24  0.0255
20. B29  0.0209
21. B18  0.00741
22. B20  -0.0141
23. B13  -0.0799
24. B28  -0.0818
25. B23  -0.153
26. B12  -0.313
27. B4  -0.371
28. B25  -0.431
29. B9  -0.561
